The supplement of paper PMC8728848
The other results are listed elsewhere or left out.

Assays:
Assay in all cases: glycan array binding signal (z-score within array); higher = stronger binding
Conditions in all cases: glycan notation: IUPAC condensed, linker removed
[1] = target: Man(a1-3)[Man(a1-6)]Man(a1-6)[Man(a1-2)Man(a1-3)]Man(b1-4)GlcNAc(b1-4)GlcNAc
Procedure, shortened: (§1)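 Arrays were curated from the Consortium for Functional Glycomics database, 3228 in total, and kept only where the protein sequence was available. Binding is expressed as a within-array Z-score. This score was averaged across arrays of the same protein sequence at different concentrations or buffers and across linkers, and negative values can be read as non-binding.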

[2] = target: Man(a1-3)[Man(a1-6)]Man(a1-6)[Man(a1-3)]Man(b1-4)GlcNAc(b1-4)GlcNAc
Procedure, shortened: as §1

[3] = target: Man(a1-3)[Man(a1-6)]Man(b1-4)GlcNAc(b1-4)GlcNAc
Procedure, shortened: as §1

Man(b1-4)GlcNAc = target: Man(b1-4)GlcNAc
Procedure, shortened: as §1

Neu5Ac(a2-3)Gal = target: Neu5Ac(a2-3)Gal
Procedure, shortened: as §1

[4] = target: Neu5Ac(a2-3)Gal(b1-3)GalNAc
Procedure, shortened: as §1

[5] = target: Neu5Ac(a2-3)Gal(b1-3)GalNAc(b1-3)Gal(a1-4)Gal(b1-4)Glc
Procedure, shortened: as §1

[6] = target: Neu5Ac(a2-3)Gal(b1-3)GalNAc(b1-3)Gal(b1-4)GlcNAc
Procedure, shortened: as §1

[7] = target: Neu5Ac(a2-3)Gal(b1-3)GalNAc(b1-4)[Neu5Ac(a2-3)]Gal(b1-4)Glc
Procedure, shortened: as §1

[8] = target: Neu5Ac(a2-3)Gal(b1-3)GalNAc6S
Procedure, shortened: as §1

[9] = target: Neu5Ac(a2-3)Gal(b1-3)GlcNAc
Procedure, shortened: as §1

[10] = target: Neu5Ac(a2-3)Gal(b1-3)GlcNAc6S
Procedure, shortened: as §1

[11] = target: Neu5Ac(a2-3)Gal(b1-3)[Fuc(a1-4)]GlcNAc
Procedure, shortened: as §1

[12] = target: Neu5Ac(a2-3)Gal(b1-3)[Fuc(a1-4)]GlcNAc(b1-3)Gal(b1-4)[Fuc(a1-3)]GlcNAc
Procedure, shortened: as §1

[13] = target: Neu5Ac(a2-3)Gal(b1-3)[Neu5Ac(a2-3)Gal(b1-4)]GlcNAc
Procedure, shortened: as §1

[14] = target: Neu5Ac(a2-3)Gal(b1-3)[Neu5Ac(a2-6)]GalNAc
Procedure, shortened: as §1

Neu5Ac(a2-3)Gal(b1-4)Glc = target: Neu5Ac(a2-3)Gal(b1-4)Glc
Procedure, shortened: as §1

[15] = target: Neu5Ac(a2-3)Gal(b1-4)GlcNAc
Procedure, shortened: as §1

[16] = target: Neu5Ac(a2-3)Gal(b1-4)GlcNAc(b1-3)Gal(b1-4)GlcNAc
Procedure, shortened: as §1

[17] = target: Neu5Ac(a2-3)Gal(b1-4)GlcNAc(b1-3)Gal(b1-4)GlcNAc(b1-3)Gal(b1-4)GlcNAc
Procedure, shortened: as §1

[18] = target: Neu5Ac(a2-3)Gal(b1-4)GlcNAc(b1-3)Gal(b1-4)[Fuc(a1-3)]GlcNAc
Procedure, shortened: as §1

[19] = target: Neu5Ac(a2-3)Gal(b1-4)GlcNAc6S
Procedure, shortened: as §1

[20] = target: Neu5Ac(a2-3)Gal(b1-4)[Fuc(a1-3)]GlcNAc
Procedure, shortened: as §1

[21] = target: Neu5Ac(a2-3)Gal(b1-4)[Fuc(a1-3)]GlcNAc(b1-3)Gal
Procedure, shortened: as §1

[22] = target: Neu5Ac(a2-3)Gal(b1-4)[Fuc(a1-3)]GlcNAc(b1-3)Gal(b1-4)GlcNAc
Procedure, shortened: as §1

[23] = target: Neu5Ac(a2-3)Gal(b1-4)[Fuc(a1-3)]GlcNAc(b1-3)Gal(b1-4)[Fuc(a1-3)]GlcNAc(b1-3)Gal(b1-4)[Fuc(a1-3)]GlcNAc
Procedure, shortened: as §1

[24] = target: Neu5Ac(a2-3)Gal(b1-4)[Fuc(a1-3)]GlcNAc6S
Procedure, shortened: as §1

[25] = target: Neu5Ac(a2-3)Gal6S(b1-4)GlcNAc
Procedure, shortened: as §1

[26] = target: Neu5Ac(a2-3)Gal6S(b1-4)[Fuc(a1-3)]GlcNAc
Procedure, shortened: as §1

Neu5Ac(a2-3)GalNAc = target: Neu5Ac(a2-3)GalNAc
Procedure, shortened: as §1

[27] = target: Neu5Ac(a2-3)GalNAc(b1-4)GlcNAc
Procedure, shortened: as §1

[28] = target: Neu5Ac(a2-3)[GalNAc(b1-4)]Gal(b1-4)Glc
Procedure, shortened: as §1

[29] = target: Neu5Ac(a2-3)[GalNAc(b1-4)]Gal(b1-4)GlcNAc
Procedure, shortened: as §1

[30] = target: Neu5Ac(a2-3)[Neu5Ac(a2-6)]GalNAc
Procedure, shortened: as §1

Neu5Ac(a2-6)Gal = target: Neu5Ac(a2-6)Gal
Procedure, shortened: as §1

Neu5Ac(a2-6)Gal(b1-4)Glc = target: Neu5Ac(a2-6)Gal(b1-4)Glc
Procedure, shortened: as §1

[31] = target: Neu5Ac(a2-6)Gal(b1-4)GlcNAc
Procedure, shortened: as §1

[32] = target: Neu5Ac(a2-6)Gal(b1-4)GlcNAc(b1-2)Man(a1-3)[Neu5Ac(a2-6)Gal(b1-4)GlcNAc(b1-2)Man(a1-6)]Man(b1-4)GlcNAc(b1-4)GlcNAc
Procedure, shortened: as §1

[33] = target: Neu5Ac(a2-6)Gal(b1-4)GlcNAc(b1-3)Gal(b1-4)GlcNAc
Procedure, shortened: as §1

[34] = target: Neu5Ac(a2-6)Gal(b1-4)GlcNAc(b1-3)Gal(b1-4)[Fuc(a1-3)]GlcNAc(b1-3)Gal(b1-4)[Fuc(a1-3)]GlcNAc
Procedure, shortened: as §1

[35] = target: Neu5Ac(a2-6)Gal(b1-4)GlcNAc6S
Procedure, shortened: as §1

Neu5Ac(a2-6)GalNAc = target: Neu5Ac(a2-6)GalNAc
Procedure, shortened: as §1

[36] = target: Neu5Ac(a2-6)GalNAc(b1-4)GlcNAc
Procedure, shortened: as §1

Neu5Ac(a2-8)Neu5Ac = target: Neu5Ac(a2-8)Neu5Ac
Procedure, shortened: as §1

[37] = target: Neu5Ac(a2-8)Neu5Ac(a2-3)Gal(b1-4)Glc
Procedure, shortened: as §1

B1: AICL (Homo sapiens), Q92478 (protein)
chain: MMTKHKKCFIIVGVLITTNIITLIVKLTRDSQSLCPYDWIGFQNKCYYFSKEEGDWNSSKYNCSTQHADLTIIDNIEEMNFLRRYKCSSDHWIGLKMAKNRTGQWVDGATFTKSFGMRGSEGCAYLSDDGAATARCYTERKWICRKRIH
- glycan array binding signal (z-score) [1]: 0.372
- glycan array binding signal (z-score) [2]: 0.406
- glycan array binding signal (z-score) [3]: -0.327
- glycan array binding signal (z-score) (Man(b1-4)GlcNAc): -0.401
- glycan array binding signal (z-score) (Neu5Ac(a2-3)Gal): -0.489
- glycan array binding signal (z-score) [4]: -0.253
- glycan array binding signal (z-score) [5]: -0.193
- glycan array binding signal (z-score) [6]: -0.503
- glycan array binding signal (z-score) [7]: -0.392
- glycan array binding signal (z-score) [8]: -0.235
- glycan array binding signal (z-score) [9]: -0.321
- glycan array binding signal (z-score) [10]: -0.227
- glycan array binding signal (z-score) [11]: -0.312
- glycan array binding signal (z-score) [12]: 0.781
- glycan array binding signal (z-score) [13]: -0.461
- glycan array binding signal (z-score) [14]: -0.178
- glycan array binding signal (z-score) (Neu5Ac(a2-3)Gal(b1-4)Glc): 0.601
- glycan array binding signal (z-score) [15]: -0.411
- glycan array binding signal (z-score) [16]: -0.411
- glycan array binding signal (z-score) [17]: -0.415
- glycan array binding signal (z-score) [18]: 0.846
- glycan array binding signal (z-score) [19]: -0.183
- glycan array binding signal (z-score) [20]: -0.409
- glycan array binding signal (z-score) [21]: -0.498
- glycan array binding signal (z-score) [22]: 0.187
- glycan array binding signal (z-score) [23]: -0.357
- glycan array binding signal (z-score) [24]: 0.232
- glycan array binding signal (z-score) [25]: -0.142
- glycan array binding signal (z-score) [26]: -0.333
- glycan array binding signal (z-score) (Neu5Ac(a2-3)GalNAc): -0.349
- glycan array binding signal (z-score) [27]: -0.335
- glycan array binding signal (z-score) [28]: -0.261
- glycan array binding signal (z-score) [29]: -0.3
- glycan array binding signal (z-score) [30]: 0.036
- glycan array binding signal (z-score) (Neu5Ac(a2-6)Gal): -0.391
- glycan array binding signal (z-score) (Neu5Ac(a2-6)Gal(b1-4)Glc): -0.359
- glycan array binding signal (z-score) [31]: -0.428
- glycan array binding signal (z-score) [32]: -0.371
- glycan array binding signal (z-score) [33]: -0.504
- glycan array binding signal (z-score) [34]: 0.004
- glycan array binding signal (z-score) [35]: -0.194
- glycan array binding signal (z-score) (Neu5Ac(a2-6)GalNAc): -0.363
- glycan array binding signal (z-score) [36]: -0.293
- glycan array binding signal (z-score) (Neu5Ac(a2-8)Neu5Ac): 0.384
- glycan array binding signal (z-score) [37]: -0.223
